# Source: PubChem BioAssay (Tox21)
# Values joined by “and” are separate entries in the source; they are usually repeats but may differ in a detail not shown here. Identical values can stand only once. Inconclusive means that the source gave no clear call. Such entries were picked first, then a sample of the others. Entries that show only a call come without a potency. For some assays here: Potencies of inconclusive entries are doubtful fits and often do not repeat. Active and inactive are the calls of the source. Unless noted, calls come from the whole dose curve; as a rule, active = well fitted curve in the direction sought with a large enough effect in the repeat runs; inconclusive = weak or mixed curves; inactive = no such curve, though single readings can be large; an effect the other way counts as inactive or inconclusive.
# Experiments:
# [1] = qHTS assay to identify small molecule agonists of the estrogen receptor beta (ER-beta) signaling pathway - cell viability counter screen (AID 1259380); note: nearly all actives have a fitted effect of over 30% in size; note: potency is the fitted concentration of half-maximal effect
# How it was run: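 Steps: plate ER-beta-UAS-bla HEK293T cells, rest 6 hr; add compounds in DMSO; incubate 16 hr at 37C, 5% CO2; add FRET substrate 2 hr; add CellTiter-Glo, wait 30 min at room temperature; read luminescence.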
# [2] = molecular target: Thyrotropin receptor (Homo sapiens) (UniProt P16473); experiment: qHTS assay to identify small molecule antagonists of the thyroid stimulating hormone receptor (TSHR) signaling pathway (AID 1259385; calls by dose curve; note: nearly all actives have a fitted effect of over 20% in size; note: potency is the fitted concentration of half-maximal effect); conditions: TSHR-HEK293 cAMP HTRF, TSH-stimulated antagonist mode; activity change, negative = inhibition: at 92.4 µM (top of the series) unless noted
# How it was run: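 TSHR-HEK293 cells (800/well) plated 18 h, then compounds with Ro20-1724 and TSH at 1.5 ng/mL final, 30 min at room temperature. cAMP quantified by HTRF (cAMP-d2/anti-cAMP-cryptate, 1 h); 15 concentrations in triplicate.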
# [3] = molecular target: Progesterone receptor (Homo sapiens) (UniProt P06401); experiment: qHTS assay to identify small molecule antagonists of the progesterone receptor (PR) signaling pathway (AID 1346795; active = well fitted inhibition curve with a large enough effect in the signal ratio in the repeat runs, not every such curve was filed as active; inconclusive = weak or mixed curves; the % refers to the signal ratio); conditions: PR-UAS-bla HEK293T, beta-lactamase FRET ratio, 16 h
# How it was run: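 Antagonist mode with agonist R5020 at 1 nM final and 16 hr incubation at 37C. Reporter was beta-lactamase driven by UAS in HEK293T (PR-UAS-bla), 2% charcoal-stripped serum; signal from LiveBLAzer FRET substrate, 2 hr at room temperature.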
# [4] = qHTS assay to identify small molecule antagonists of the progesterone receptor (PR) signaling pathway - cell viability counter screen (AID 1346798); note: nearly all actives have a fitted effect of over 50% in size
# How it was run: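 Cytotoxicity read as CellTiter-Glo luminescence (30 min, room temperature) in the same wells as the beta-lactamase readout. HEK293T PR-UAS-bla cells in charcoal-stripped 2% FBS received compound and R5020, then 16 h at 37C, 5% CO2.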
# [5] = qHTS assay to identify small molecule agonists of the androgen receptor (AR) signaling pathway in the presence of an antagonist - cell viability counter screen (AID 1259379);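 note: MDA-kb2 human breast cancer cells carrying an MMTV luciferase reporter; nearly all actives have a fitted effect of over 25% in size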
# How it was run: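 Nilutamide-containing (3.0uM final) MDA-kb2 cultures, 3,000 cells/well, were treated with compounds across 15 concentrations. After 16 hr at 37C with no CO2, cell viability was determined by CellTiter-Fluor fluorescence in the luciferase assay wells.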
# [6] = qHTS assay to identify small molecule agonists of the progesterone receptor (PR) signaling pathway - cell viability counter screen (AID 1346799; calls by dose curve; note: nearly all actives have a fitted effect of over 45% in size; note: potency is the fitted concentration of half-maximal effect)
# How it was run: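 Cytotoxicity measured by CellTiter-Glo luminescence (30 min, RT) in the same wells as the PR beta-lactamase agonist read. Those HEK293T cells had 16 h compound treatment at 37 C in 2% charcoal-stripped FBS medium.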
# [7] = molecular target: Progesterone receptor (Homo sapiens) (UniProt P06401); experiment: qHTS assay to identify small molecule agonists of the progesterone receptor (PR) signaling pathway (AID 1346784; calls by dose curve; note: nearly all actives have a fitted effect of over 30% in size); conditions: PR-UAS-bla HEK293T, beta-lactamase FRET ratio, 16 h; activation: at 92.4 µM (top of the series) unless noted
# How it was run: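 Agonist qHTS: compounds pinned onto 3,000 PR-UAS-bla HEK 293T cells per well in charcoal-stripped serum medium, 16hr at 37C, then beta-lactamase activity measured by LiveBLAzer FRET fluorescence after 2 hours at room temperature.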
# [8] = activity change, negative = inhibition: at 92.4 µM (top of the series) unless noted
# Tags give direction and shape of the fitted curve.
# UniProt P06401, sequence (P06401 whole entry, looked up): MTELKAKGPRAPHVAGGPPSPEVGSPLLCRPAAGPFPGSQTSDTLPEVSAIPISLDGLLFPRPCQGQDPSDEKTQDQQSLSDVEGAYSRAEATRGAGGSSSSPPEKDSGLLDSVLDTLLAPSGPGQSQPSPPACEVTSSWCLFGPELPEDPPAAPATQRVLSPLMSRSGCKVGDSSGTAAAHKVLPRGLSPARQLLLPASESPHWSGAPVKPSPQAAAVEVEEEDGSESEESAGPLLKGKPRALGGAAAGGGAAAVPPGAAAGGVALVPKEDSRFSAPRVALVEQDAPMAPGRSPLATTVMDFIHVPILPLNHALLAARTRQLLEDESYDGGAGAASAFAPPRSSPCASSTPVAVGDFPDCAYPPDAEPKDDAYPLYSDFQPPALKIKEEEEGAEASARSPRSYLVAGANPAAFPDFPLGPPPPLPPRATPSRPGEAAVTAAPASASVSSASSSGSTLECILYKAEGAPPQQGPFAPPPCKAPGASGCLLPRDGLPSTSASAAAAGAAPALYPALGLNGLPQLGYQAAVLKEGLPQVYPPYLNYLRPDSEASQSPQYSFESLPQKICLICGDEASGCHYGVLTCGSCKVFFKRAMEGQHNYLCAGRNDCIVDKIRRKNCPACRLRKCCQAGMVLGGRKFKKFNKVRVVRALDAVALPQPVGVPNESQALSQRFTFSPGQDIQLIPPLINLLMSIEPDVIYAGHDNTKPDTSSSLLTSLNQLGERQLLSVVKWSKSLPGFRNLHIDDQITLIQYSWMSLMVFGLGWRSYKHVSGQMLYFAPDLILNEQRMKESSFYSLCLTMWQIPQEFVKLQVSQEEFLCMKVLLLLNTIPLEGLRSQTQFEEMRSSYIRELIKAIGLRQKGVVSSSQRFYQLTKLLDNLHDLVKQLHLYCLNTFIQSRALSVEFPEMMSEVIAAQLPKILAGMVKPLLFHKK
# UniProt P16473, sequence (P16473 whole entry, looked up): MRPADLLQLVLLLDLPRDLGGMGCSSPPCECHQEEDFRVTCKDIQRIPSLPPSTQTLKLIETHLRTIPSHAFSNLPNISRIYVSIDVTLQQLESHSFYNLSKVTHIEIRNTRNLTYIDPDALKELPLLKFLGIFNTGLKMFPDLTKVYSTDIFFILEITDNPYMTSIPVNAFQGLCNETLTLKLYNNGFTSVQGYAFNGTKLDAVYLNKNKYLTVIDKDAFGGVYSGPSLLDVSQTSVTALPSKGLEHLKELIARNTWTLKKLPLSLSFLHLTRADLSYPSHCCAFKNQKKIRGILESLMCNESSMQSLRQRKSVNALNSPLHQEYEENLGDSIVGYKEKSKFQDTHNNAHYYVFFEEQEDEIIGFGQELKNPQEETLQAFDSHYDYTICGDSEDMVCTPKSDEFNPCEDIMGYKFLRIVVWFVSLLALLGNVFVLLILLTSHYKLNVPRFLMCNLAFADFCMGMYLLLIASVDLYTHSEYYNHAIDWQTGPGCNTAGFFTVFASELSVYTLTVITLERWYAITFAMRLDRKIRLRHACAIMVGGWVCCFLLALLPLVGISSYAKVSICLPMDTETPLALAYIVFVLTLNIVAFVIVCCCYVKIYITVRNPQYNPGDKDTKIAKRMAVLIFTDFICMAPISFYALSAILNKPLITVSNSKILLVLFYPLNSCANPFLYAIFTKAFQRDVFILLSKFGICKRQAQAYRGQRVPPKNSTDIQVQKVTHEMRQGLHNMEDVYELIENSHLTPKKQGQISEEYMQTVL
structure (smiles),measurement,setting,value
CC(=O)CCC(C)=O,Potency,[1],inactive
same,Potency,[2],"inconclusive: 55.9 µM [falling, partial curve]"
same,Potency,[3]; [8],inactive
same,Potency,[4],inactive
c1nc[nH]n1,Potency,[5],inactive
same,Potency,[1],"inconclusive: 30.6 µM [rising, single point]"
same,Potency,[6],inactive
CC(=O)NC1CCSC1=O (centres undefined),Potency,[1],inactive
same,Potency,[2],inactive
CC(C)=CC1C(C(=O)OCN2C(=O)C3=C(CCCC3)C2=O)C1(C)C (centres undefined),Potency,[1],"inconclusive: 8.63 µM [cytotoxic, full curve] and inconclusive: 16.8 µM [cytotoxic, partial curve]"
same,activation,[7],inconclusive: 9.46% [at 42.5 µM]
same,"activity change, negative = inhibition",[3]; [8],inconclusive: -24.3% [at 42.5 µM]
same,"activity change, negative = inhibition",[3]; at 92.4 µM (top of the series),inactive: -18.6%
same,Potency,[6],"inconclusive: 7.7 µM [cytotoxic, full curve, poor fit] and inconclusive: 4.73 µM [cytotoxic, full curve, poor fit]"
